Screen size: about 370,000 compounds; about 150 (0.041%) were called active. Inconclusive results, whose numbers are uncertain, are shown with a selection of clear calls. Calls come from the whole dose curve; as a rule, active = well fitted inhibition curve with a large enough effect; inconclusive = small, poorly fitted or top-dose-only effect; inactive = flat fitted curve, though single readings scatter. No potency is given beside an inconclusive call; the fits are too rough.
The compounds below were run against Beta-lactamase (Escherichia coli (strain K12)) (UniProt P00811) (assay: qHTS Inhibitors of AmpC Beta-Lactamase (assay with detergent)). Settings: AmpC hydrolysis of nitrocefin, absorbance 480 nm, 0.01% Triton; activity change, negative = inhibition: at 114 µM (top of the series).
Summary of the method: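 20 mM phosphate pH 7.0 + 0.01% (detergent screen) or 0.0001% Triton X-100; 5.3 nM AmpC reagent; cpd preinc 15 min RT; nitrocefin (800 uM stock) to start; A480 q20 s × 4 min; Activity was normalised to no-enzyme and no-compound control wells.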
Note: nearly all actives have a fitted effect of over 25% in size.
Potency is the fitted concentration of half-maximal effect; tags give direction and shape of the fitted curve.
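Throughout, for activity change, negative = inhibition: 0% = no-compound wells and -100% = no-enzyme wells.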

Sequence of UniProt P00811 (P00811 whole entry, looked up): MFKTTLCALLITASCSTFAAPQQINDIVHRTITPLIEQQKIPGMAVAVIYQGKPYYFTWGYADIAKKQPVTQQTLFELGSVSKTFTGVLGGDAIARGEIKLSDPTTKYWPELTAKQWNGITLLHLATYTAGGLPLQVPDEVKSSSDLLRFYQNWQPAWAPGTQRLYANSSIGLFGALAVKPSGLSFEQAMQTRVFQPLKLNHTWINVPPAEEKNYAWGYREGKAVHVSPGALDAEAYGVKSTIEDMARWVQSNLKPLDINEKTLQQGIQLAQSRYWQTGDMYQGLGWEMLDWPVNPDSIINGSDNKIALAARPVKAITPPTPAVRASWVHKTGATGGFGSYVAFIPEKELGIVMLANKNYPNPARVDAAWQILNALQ

Row | SMILES | Potency | activity change, negative = inhibition
1 | Cc1[nH]c2ccccc2c1/C=N/Nc1ccc([N+](=O)[O-])cc1 | inconclusive [inhibitor, full curve, poor fit] | –
2 | O=C(NC1CCS(=O)(=O)C1)c1cccc(S(=O)(=O)N2CCOCC2)c1 (centres undefined) | inconclusive [inhibitor, single point] | –
3 | COc1ccc(/C=C2\CN(Cc3ccccc3)C/C(=C\c3ccc(OC)cc3OC)C2=O)c(OC)c1 | – | inactive: 2.17%
4 | O=C(/C=C/c1ccccc1)NC1CC2CCC1C2 (centres undefined) | – | inactive: 0.464%
5 | Cc1cc(C)c2[nH]c(=O)c(C(c3nnnn3CC3CCCO3)N3CCCC(C)C3)cc2c1 (centres undefined) | – | inactive: -0.168%
6 | Cc1cc(C)c(S(=O)(=O)NCc2ccc3c(c2)OCO3)c(C)c1 | inconclusive [inhibitor, full curve, poor fit] | –
7 | CCC(C)(C)NC(=O)C(c1ccco1)N(C(=O)Cn1nnc2ccccc21)c1ccc2c(c1)OCO2 (centres undefined) | – | inactive: 0.342%
8 | O=C(Nc1ccccc1-c1nc2ccccc2s1)C1=COCCO1 | inconclusive [inhibitor, partial curve, poor fit] | –
9 | CS(=O)(=O)N(CC(=O)N1CCC(C(N)=O)CC1)c1ccc(Cl)c(C(F)(F)F)c1 | inconclusive [inhibitor, single point] | –
10 | CC(C)(C)NC(=O)C1Cc2ccccc2CN1C(=O)Nc1ccccc1Cl (centres undefined) | inconclusive [inhibitor, full curve, poor fit] | –
11 | CCOc1ccc(NC(=S)Nc2ccc(Br)cc2Cl)cc1 | inconclusive [inhibitor, full curve, poor fit] | –
12 | OC(COC(c1ccc(Cl)cc1)c1ccc(Cl)cc1)CN1CCN(c2ccccn2)CC1 (centres undefined) | – | inactive: -0.363%
13 | CN(c1ccccc1)S(=O)(=O)c1ccc(C(=O)Nc2nnc(-c3ccc(F)cc3)o2)cc1 | inconclusive [inhibitor, full curve] | –
14 | COC(=O)C1=C2SC(C)C(=O)N2C(N)=C(C#N)C1c1ccc(OC)c(OC)c1 (centres undefined) | inconclusive [inhibitor, full curve, poor fit] | –
15 | Cc1cc(=O)oc(C)c1C(=O)N1CCN(Cc2ccc3c(c2)OCO3)CC1 | inconclusive [inhibitor, full curve, poor fit] | –
16 | Cc1cccc(NC(=O)CCC(=O)OCC(=O)c2ccc(Oc3ccc([N+](=O)[O-])cc3)cc2)c1 | inconclusive [inhibitor, partial curve] | –
17 | C=CCn1c(=S)[nH]c2cc(-c3ccccc3)sc2c1=O | – | inactive: -5.43%
18 | Cc1cc(Nc2cccc(F)c2)n2ncnc2n1 | inconclusive [inhibitor, full curve] | –
19 | CCCCCC1CCC(C(=O)NNC(=S)NCC)CC1 (centres undefined) | inconclusive [inhibitor, full curve] | –
20 | O=c1[nH]c2ccccc2nc1-c1c[nH]c2ccccc12 | inconclusive [inhibitor, single point] | –
21 | COc1ccc(CCN2C(=O)C(Oc3ccccc3C)C2c2ccc3c(c2)OCO3)cc1 (centres undefined) | inconclusive [inhibitor, full curve] | –
22 | Cc1ccc(OCC(=O)Nc2ccc(Cl)cc2)c(-n2nc3ccccc3n2)c1 | inconclusive [inhibitor, partial curve, poor fit] | –

Row | SMILES | Potency | activity change, negative = inhibition
23 | CCOC(=O)C1CCN(C(=O)c2cccc(S(=O)(=O)N(CC)c3ccccc3)c2)CC1 | inconclusive [inhibitor, full curve, poor fit] | –
24 | COc1cc(C)c(NC(c2ccccc2)c2ccccc2)cc1OC | – | inactive: -5.53%
25 | COc1cccc(-c2nnc(NC(=O)c3ccc(S(=O)(=O)N(CC(C)C)CC(C)C)cc3)o2)c1 | inconclusive [inhibitor, partial curve] | –
26 | CN(C)S(=O)(=O)c1cccc(NC(=O)c2cccc(S(=O)(=O)N3CCCCC3)c2)c1 | inconclusive [inhibitor, partial curve, poor fit] | –
27 | CCNS(=O)(=O)c1ccc(CCC(=O)NCc2ccc3c(c2)OCO3)cc1 | – | inactive: 1.95%
28 | O=C(NN1CCOCC1)c1cccc(COc2cccc(Br)c2)c1 | inconclusive [inhibitor, full curve, poor fit] | –
29 | NS(=O)(=O)c1ccc(NC(=S)NC(=O)c2ccc3c(c2)OCO3)cc1 | – | inactive: 1.14%
30 | c1ccc(CNc2ncnc3sccc23)cc1 | inconclusive [inhibitor, full curve, poor fit] | –
31 | Cc1cc(C(=O)OCC(=O)Nc2cc(S(=O)(=O)N3CCOCC3)ccc2Cl)c(C)o1 | inconclusive [inhibitor, partial curve, poor fit] | –
32 | NNC(=O)c1cc2ccccc2cc1NS(=O)(=O)c1ccccc1 | inconclusive [inhibitor, full curve] | –
33 | CN(CC(=O)N1CCN(Cc2ccccc2)CC1)S(=O)(=O)c1cccc2nsnc12 | inconclusive [inhibitor, full curve, poor fit] | –
34 | COc1cc2c(C#N)c(N3CCCCC3)nc(N)c2c(N)n1 | inconclusive [inhibitor, full curve, poor fit] | –
35 | COc1ccc(NC(=S)N(Cc2cccc(Br)c2)CC2CCC(C(=O)O)CC2)cc1 (centres undefined) | inconclusive [inhibitor, full curve, poor fit] | –
36 | O=C(Cn1ccsc1=NC(=O)C(F)(F)F)c1ccccc1 | – | inactive: 0.622%
37 | Cc1ccc(S(=O)(=O)N2CCC(=O)N(CCOCc3ccc(F)cc3)CC2)cc1 | inconclusive [inhibitor, full curve, poor fit] | –
38 | COc1cc2nc(C3CCC3)n(NC(=O)C3CCCC(OC)C3)c(=O)c2cc1OC (centres undefined) | inconclusive [inhibitor, full curve, poor fit] | –
39 | O=C(NCc1ccc2c(c1)OCO2)c1ccncc1 | – | inactive: -4.05%
40 | O=C(O)CCC(=O)N1CCc2cc(S(=O)(=O)N3CCC(Cc4ccccc4)CC3)ccc21 | inconclusive [inhibitor, partial curve] | –
41 | Cc1c(NC(=O)/C(=C\c2ccccc2)NC(=O)c2ccccc2)c(=O)n(-c2ccccc2)n1C | inconclusive [inhibitor, partial curve, poor fit] | –
42 | Cn1nc(C(=O)Nc2cc(Cl)ccc2N2CCCC2)c2ccccc2c1=O | – | inactive: -1.86%
43 | COc1ccc(C2c3c(oc4ccc(Cl)cc4c3=O)C(=O)N2CCCN(C)C)cc1OC (centres undefined) | – | inactive: 6.11%
44 | CCCn1c(SCC(=O)NCc2cccs2)nc2c1c(=O)n(C)c(=O)n2C | inconclusive [inhibitor, full curve, poor fit] | –

Row | SMILES | Potency | activity change, negative = inhibition
45 | Nc1nnc(SCC(=O)N2CCN(c3ccccc3)CC2)s1 | inconclusive [inhibitor, full curve] | –
46 | CN(C)c1ccc(NC2=C([N+](=O)[O-])CS(=O)(=O)C2)cc1 | – | inactive: 4.35%
47 | CCC1(CC)C(=O)N(C)C(=O)NC1=Nc1ccccc1 | inconclusive [inhibitor, full curve, poor fit] | –
48 | O=C(CNC(=O)c1ccco1)OCC(=O)c1ccc2c(c1)CCCC2 | inconclusive [inhibitor, full curve, poor fit] | –
49 | CCN1C(=O)C(CC(=O)NCCc2ccccc2)N(NC(=O)c2cccnc2)C1=S (centres undefined) | inconclusive [inhibitor, partial curve, poor fit] | –
50 | Cc1c(C(=O)N(C)c2cccc(Cl)c2)cnn1-c1ccccc1 | inconclusive [inhibitor, full curve, poor fit] | –
51 | CNS(=O)(=O)c1ccc(NC(=O)C(CCSC)NC(N)=O)cc1 (centres undefined) | inconclusive [inhibitor, single point] | –
52 | O=C(CN1CCN(C(=O)c2cccc(-n3cnnn3)c2)CC1)Nc1ccccc1Cl | inconclusive [inhibitor, single point] | –
53 | CC(CN1CCN(C)CC1)OC(=O)c1cccc(F)c1 (centres undefined) | inconclusive [inhibitor, full curve] | –
54 | CCOc1ccc(OCC(=O)Nc2ccccc2C(F)(F)F)cc1 | – | inactive: 3.62%
55 | O=C(Nc1ccc(SC(F)F)cc1)C1=COCCO1 | inconclusive [inhibitor, partial curve] | –
56 | O=C1CCc2cc(S(=O)(=O)N3CCCC3C(=O)N3CCN(c4ccccc4)CC3)ccc2N1 (centres undefined) | inconclusive [inhibitor, full curve, poor fit] | –
57 | CCC(Sc1nc2ccccc2c2nc3ccccc3n12)C(=O)NCc1ccco1 (centres undefined) | inconclusive [inhibitor, full curve, poor fit] | –
58 | CCOC(=O)N1CCN(C(=O)Cn2ncc3ccccc32)CC1 | inconclusive [inhibitor, full curve, poor fit] | –
59 | CCOC(=O)C1=NN(c2ccc(C)cc2)CC1C(=O)OC (centres undefined) | inconclusive [inhibitor, partial curve, poor fit] | –
60 | COc1ccc(NS(=O)(=O)c2ccc(NC(=S)NC(=O)CC(C)C)cc2)cc1 | inconclusive [inhibitor, full curve, poor fit] | –
61 | COc1ccc(CCN2CN(S(=O)(=O)c3ccc(C)cc3)c3nc4ccccc4nc32)cc1OC | inconclusive [inhibitor, partial curve] | –
62 | O=C(CCn1c(=O)oc2ccc(Cl)cc21)N1CCN(c2ccccc2)CC1 | inconclusive [inhibitor, full curve, poor fit] | –
63 | Cc1ccc2nc(N3C(=O)C(O)=C(C(=O)c4ccc(C)o4)C3c3cccc(O)c3)sc2c1 (centres undefined) | – | inactive: -0.732%
64 | CC(=O)c1cccc(NC(=O)Cn2c(=O)oc3cc(S(=O)(=O)NC4CCCC4)ccc32)c1 | – | inactive: 2.09%

Reference: PubChem BioAssay AID485294 (National Center for Advancing Translational Sciences (NCATS), 2010)
